# Measurements from PubChem BioAssay AID360 (National Center for Advancing Translational Sciences (NCATS), 2006).
# Among all 48,000 compounds or so, about 550 (1.1%) were called active. Roughly 4% stayed inconclusive and do not appear here. Rule as the data show it: active = potency below about 15 µM; inconclusive = mostly about 16 µM to 33 µM; inactive = weaker than that. This is one part of the list.
# Target: Lysosomal acid glucosylceramidase (Homo sapiens) (UniProt P04062)
# Test: Glucocerebrosidase;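 also: the screen sought inhibitors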
# Settings: purified enzyme, resorufin glucoside fluorescence (screen aimed at inhibitors), 20 min
# Outline: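 Wild-type enzyme at 0.2 nM final in 50mM citric acid/KH2PO4, 10mM sodium taurocholate, 0.01% tween-20, pH 5.9, with resorufin beta-D-glucopyranoside at 30 uM final. Compounds titrated, 20 min at RT, red fluorescence read; AC50 from titration.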
# Potency is read from the fitted curve at half-maximal effect.
# Sequence of UniProt P04062 (P04062 whole entry, looked up): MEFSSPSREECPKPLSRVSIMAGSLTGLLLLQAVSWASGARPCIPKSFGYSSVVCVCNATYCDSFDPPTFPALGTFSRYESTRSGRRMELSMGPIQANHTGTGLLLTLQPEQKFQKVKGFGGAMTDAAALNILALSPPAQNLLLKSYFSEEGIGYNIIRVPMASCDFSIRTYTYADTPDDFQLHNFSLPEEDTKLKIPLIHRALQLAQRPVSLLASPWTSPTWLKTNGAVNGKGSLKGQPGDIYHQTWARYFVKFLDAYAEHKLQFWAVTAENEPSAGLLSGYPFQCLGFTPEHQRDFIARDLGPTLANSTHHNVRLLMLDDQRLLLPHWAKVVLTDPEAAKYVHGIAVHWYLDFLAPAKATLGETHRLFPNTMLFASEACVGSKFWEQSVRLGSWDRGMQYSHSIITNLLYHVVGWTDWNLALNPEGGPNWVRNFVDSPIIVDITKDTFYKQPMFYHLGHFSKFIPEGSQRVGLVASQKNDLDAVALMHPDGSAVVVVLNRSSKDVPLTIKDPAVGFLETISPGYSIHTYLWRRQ
row,SMILES,Potency
1,O=c1c2ccccc2nc(SCc2cn3ccsc3n2)n1-c1ccccc1,inactive
2,O=C(CNS(=O)(=O)c1cccc2nsnc12)NC1CCCCC1,inactive: > 76.9 µM
3,CC(=O)Nc1sc(NC(=O)c2ccccc2)nc1-c1cccs1,inactive: > 76.9 µM
4,COc1ccccc1NC(=O)CCc1c(C)[nH]c(=O)c(C#N)c1C,inactive: > 76.9 µM
5,CCOc1ccccc1C(=O)NCC(=O)OCC(=O)NCCc1ccc(S(N)(=O)=O)cc1,inactive: > 76.9 µM
6,O=c1c2cn[nH]c2[nH]c(=S)n1-c1ccccc1F,inactive: > 76.9 µM
7,CCN1CCN(C(=O)c2ccc3c(=O)n(Cc4ccccc4OC)c(=S)[nH]c3c2)CC1,inactive: > 76.9 µM
8,COc1ccc(CNC(=O)c2cc3c(=O)n4ccccc4nc3n(Cc3cccnc3)c2=N)cc1,inactive: > 76.9 µM
9,Cn1cc(C(=O)NCCN2CCN(c3cccc(Cl)c3)CC2)c2c3ccccc3n(C)c2c1=O,inactive: > 76.9 µM
10,COc1ccc(C)cc1S(=O)(=O)N(CC(=O)N1CCOCC1)Cc1ccccc1,inactive: > 76.9 µM
11,Cc1oc(C)c(C(N)=O)c1C(N)=O,inactive: > 76.9 µM
12,Cc1cc(C)n(-c2nc(C)nc3sc4c(c23)CCC(C)C4)n1 (configuration not stated),inactive: > 76.9 µM
13,CC(=O)c1c(C(C)=O)c(C)n(Cc2ccc3c(c2)OCO3)c1C,inactive: > 76.9 µM
14,CCN(CC)c1ccc(NC(=O)c2ccco2)cc1,inactive: > 76.9 µM
15,CCCOc1ccc(N2CC(C(=O)Nc3ccccc3F)CC2=O)cc1 (configuration not stated),inactive: > 76.9 µM
16,COc1ccc2nc(NC(=O)CSC3=NCCS3)sc2c1,inactive: > 76.9 µM
17,CCCC(=O)Nc1ccccc1NC(C)=O,inactive: > 76.9 µM
18,COC(=O)CNC(=O)COC(=O)c1cc(Cl)cc(Cl)c1N,inactive: > 76.9 µM
19,C=CCSC1=C(C#N)C(c2ccccc2C)CC(=O)N1 (configuration not stated),inactive: > 76.9 µM
20,O/N=C1\CC/C(=N\O)c2nn(-c3ccccc3Cl)nc21,inactive: > 76.9 µM
21,O=S(=O)(c1ccc2c(c1)nc1n2CCC1)N1CCOCC1,inactive: > 76.9 µM
22,Cc1ccc(-n2c3c(cc(C(=O)NC4CCSC4=O)c2=O)C(=O)CCC3)cc1 (configuration not stated),inactive: > 76.9 µM
23,Cc1ccc2oc(=O)cc(CN3CCOCC3)c2c1,inactive: > 76.9 µM

row,SMILES,Potency
1,N#Cc1nc(-c2ccc(Cl)cc2)oc1NCc1cccc2c1OCO2,inactive: > 76.9 µM
2,Cc1ccc(-c2n[nH]c(=O)c3ccccc23)cc1N,inactive: > 76.9 µM
3,CCn1c(SCc2cccnc2)nc2c1c(=O)n(C)c(=O)n2C,inactive: > 76.9 µM
4,O=C(O)C1Sc2[nH]c(=O)sc2C2c3cc(Cl)ccc3OC(=O)C12 (configuration not stated),inactive: > 76.9 µM
5,O=C(c1cccc(Br)c1)N1CCN(C(=O)N2CCCCC2)CC1,inactive: > 76.9 µM
6,CS(=O)(=O)N(CC(=O)NCc1cccnc1)Cc1ccc(Cl)cc1,inactive: > 76.9 µM
7,O=C(Nc1c2c(nn1-c1ccc(F)cc1)CSC2)c1ccc(S(=O)(=O)N2CCOCC2)cc1,inactive: > 76.9 µM
8,CC(C)NC(=O)CN(CCc1ccccc1)S(C)(=O)=O,inactive: > 76.9 µM
9,CCOc1cc(N2CCOCC2)c(OCC)cc1NC(=O)Cn1[nH]c(=O)c2ccccc2c1=O,inactive: > 76.9 µM
10,CCn1c(SCC(=O)Nc2ccc3c(c2)OCCO3)nc2c(c1=O)SC(C)C2 (configuration not stated),inactive: > 76.9 µM
11,O=C(c1cccs1)N1CCN(CCc2ccccc2)CC1,inactive: > 76.9 µM
12,O=S(=O)(NC1CCCCCCC1)c1cccs1,inactive: > 76.9 µM
13,CCc1ccccc1N(CC(=O)O)S(C)(=O)=O,inactive: > 76.9 µM
14,COc1ccc(N2CCN(S(=O)(=O)c3cccc(C(F)(F)F)c3)CC2)cc1,inactive: > 76.9 µM
15,COC(=O)c1sc(N)c(C(=O)OC)c1CSc1nc2sc3c(c2c(=O)n1C)CCC3,inactive: > 76.9 µM
16,Cc1ccccc1CSc1nnc(-c2ccccn2)n1N,inactive: > 76.9 µM
17,N#Cc1ccc(OCCN2C(=O)NC3(CCSC3)C2=O)cc1 (configuration not stated),inactive: > 76.9 µM
18,Cn1c(=O)n(C)c2cc(C(N)=O)ccc21,inactive: > 76.9 µM
19,CCOc1cccc(NC(=O)CC#N)c1,inactive: > 76.9 µM
20,CCOc1cc(C(=O)N2CCN(c3ccc(C(C)=O)cc3)CC2)cc(OCC)c1OCC,inactive: > 76.9 µM
21,Cc1ccc(C(=O)Cn2c(C)cc(C)c(C#N)c2=O)cc1,inactive: > 76.9 µM
22,CCCCN(C(=O)NC(=O)Nc1cccc(C)c1C)S(C)(=O)=O,inactive: > 76.9 µM
23,CCOC(=O)C1CCCN(c2cc(=O)n(Cc3ccc(F)cc3)c(=O)[nH]2)C1 (configuration not stated),inactive: > 76.9 µM

row,SMILES,Potency
1,O=C1CC(/C=C/c2ccco2)=Nc2ccccc2N1,inactive: > 76.9 µM
2,CCc1c(C)nc(N2CCOCC2)[nH]c1=O,inactive: > 76.9 µM
3,CC(C)Cn1c(N)c(C(=O)COC(=O)c2ccc3ccccc3n2)c(=O)n(C)c1=O,inactive: > 76.9 µM
4,COc1cc(C(=O)NCc2cn3ccsc3n2)cc(OC)c1OC,inactive: > 76.9 µM
5,COc1ccc2[nH]c(=O)c(CN(C(=O)c3ccco3)C3CCCCC3)cc2c1,inactive: > 76.9 µM
6,COC(=O)c1[nH]c2ccc(C)cc2c1NC(=O)CCN1CCN(C2CCCCC2)CC1,inactive: > 76.9 µM
7,CC1(C)Cc2nc3sc4c(=O)n(CC(=O)NCc5ccco5)cnc4c3cc2CO1,inactive: > 76.9 µM
8,COc1ccc(CNc2oc(Cc3cccc4ccccc34)nc2C#N)cc1,inactive: > 76.9 µM
9,Cc1onc(-c2ccccc2)c1C(=O)NCc1ccccn1,inactive: > 76.9 µM
10,O=C(Nc1ccc(N2CCOCC2)c(Cl)c1)c1ncn[nH]1,inactive: > 76.9 µM
11,O=C(CSc1nnnn1-c1ccc(Cl)cc1)N1CCc2ccccc2C1,inactive: > 76.9 µM
12,CN(C1CCCCC1)S(=O)(=O)c1ccc(S(=O)(=O)N2CCCC2)cc1,inactive: > 76.9 µM
13,CCC(C)(C(=O)NC1CCCC1)N(C(=O)CNC(C)=O)c1ccc(C)cc1 (configuration not stated),inactive: > 76.9 µM
14,COC(=O)c1ccc(C(=O)OC)c(NS(C)(=O)=O)c1,inactive: > 76.9 µM
15,COc1ccc(NC(=O)C2CCCN(S(=O)(=O)c3cccnc3)C2)cc1 (configuration not stated),inactive: > 76.9 µM
16,CCc1ccc2nc(NC3=NCN(CCN4CCOCC4)CN3)nc(C)c2c1,inactive: > 76.9 µM
17,O=C(C1CCC(CNS(=O)(=O)c2cccs2)CC1)N1CCCCC1 (configuration not stated),inactive: > 76.9 µM
18,Cc1nc(NC2=NCN(Cc3ccco3)CN2)nc2ccccc12,inactive: > 76.9 µM
19,O=C(OCc1nnc(-c2ccccc2)o1)c1ccc2c(c1)OCCO2,inactive: > 76.9 µM
20,O=C(O)C1CSC(c2ccccc2)N1C(=O)c1ccco1 (configuration not stated),inactive: > 76.9 µM
21,Cn1nnnc1SCc1cc(=O)[nH]c2ccccc12,inactive: > 76.9 µM
22,O=S(=O)(Nc1ncccc1O)c1ccc(Cl)cc1,inactive: > 76.9 µM
23,Cc1ccc(NC(=O)C(C)Sc2nnc(-c3cccnc3)o2)cc1 (configuration not stated),inactive: > 76.9 µM

row,SMILES,Potency
1,COc1ccccc1CNc1nc2nc(C)cc(=O)n2[nH]1,inactive: > 76.9 µM
2,CCc1ccc2c(COC(=O)c3n[nH]c4ccccc34)cc(=O)oc2c1,inactive: > 76.9 µM
3,COc1cccc(-c2nn(C)c3sc(C(=O)Nc4ccc5c(c4)OCCO5)cc23)c1,inactive: > 76.9 µM
4,O=C(CCCn1c(=S)[nH]c2cc3c(cc2c1=O)OCO3)N1CCN(c2ccccc2)CC1,inactive
5,COC(=O)C1=C(C(=O)c2ccc(C)cc2)C(c2ccc(OC)c(OC)c2)n2nnnc2N1 (configuration not stated),inactive
6,O=C1CN2C(=Nc3ccc(Cl)cc3C2c2ccccc2)CN1 (configuration not stated),active: 1.26 µM
7,CCCCn1nnnc1SCC(=O)Nc1ccc2c(c1)OCO2,inactive: > 76.9 µM
8,Cn1cnnc1SCC(=O)Nc1sccc1C#N,inactive: > 76.9 µM
9,CCOC(=O)Cc1csc(SCC(=O)/C(C#N)=C(\C)N)n1,inactive: > 76.9 µM
10,O=C(Cc1cccs1)NCC1CCCO1 (configuration not stated),inactive: > 76.9 µM
11,O=S(=O)(CCSc1ccccn1)c1nc2ccccc2s1,inactive: > 76.9 µM
12,O=C(CSc1nnc(-c2ccco2)o1)NCC(=O)c1ccccc1,inactive: > 76.9 µM
13,CC1CCCN(C(=O)C2CCN(CC3CC=CCC3)CC2)C1 (configuration not stated),inactive: > 76.9 µM
14,CC1CCc2cc(F)ccc2N1C(=O)c1ccc2c(c1)OCO2 (configuration not stated),inactive: > 76.9 µM
15,COc1ccc2nc(NC(=O)CCNS(=O)(=O)c3ccc4c(c3)oc(=O)n4C)sc2c1,inactive: > 76.9 µM
16,CCOC(=O)C1(O)CSc2nc3sc(C(=O)O)c(C)c3c(=O)n21 (configuration not stated),inactive: > 76.9 µM
17,Cc1ccc(Nc2nc(N)nc(CN3CCN(c4ccccc4)CC3)n2)cc1Cl,active: 4.19 µM
18,O=C(CSc1nnc(-c2cccc(S(=O)(=O)N3CCCCC3)c2)o1)NCCC1=CCCCC1,inactive: > 76.9 µM
19,COc1ccccc1CC(=O)NCc1ccc2c(c1)OCO2,inactive: > 76.9 µM
20,Cc1c(C(=O)Nc2ccncc2)oc2c1C(=O)CC(C)(C)C2,inactive: > 76.9 µM
21,CCN(c1ccccc1)S(=O)(=O)c1ccc(Oc2ccc(-n3ccnc3)cc2)nc1,inactive
22,CC12CN3CC(C)(CN(C1)C3c1ccccc1Cl)C2O (configuration not stated),inactive: > 76.9 µM
23,COC(=O)c1cc(NC(=O)CN(c2ccc3c(c2)OCO3)S(C)(=O)=O)ccc1Cl,inactive: > 76.9 µM
